Results: article PMC4336329 (PLoS ONE, 2015)
Among all 310,000 compounds or so, about 14,000 (4.5%) showed an effect of 50% or more. The effect is printed as a negative number. The list shows a part of the results.

What follows are molecules tested against human ether-à-go-go-related gene (hERG) potassium channel (human, UniProt Q12809) (assay: primary screen, population patch clamp on CHO cells stably expressing hERG).
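Note: peak tail current of the secondary pulse compared with the same well before compound.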

Sequence of human ether-à-go-go-related gene (hERG) potassium channel (Q12809 whole entry, looked up): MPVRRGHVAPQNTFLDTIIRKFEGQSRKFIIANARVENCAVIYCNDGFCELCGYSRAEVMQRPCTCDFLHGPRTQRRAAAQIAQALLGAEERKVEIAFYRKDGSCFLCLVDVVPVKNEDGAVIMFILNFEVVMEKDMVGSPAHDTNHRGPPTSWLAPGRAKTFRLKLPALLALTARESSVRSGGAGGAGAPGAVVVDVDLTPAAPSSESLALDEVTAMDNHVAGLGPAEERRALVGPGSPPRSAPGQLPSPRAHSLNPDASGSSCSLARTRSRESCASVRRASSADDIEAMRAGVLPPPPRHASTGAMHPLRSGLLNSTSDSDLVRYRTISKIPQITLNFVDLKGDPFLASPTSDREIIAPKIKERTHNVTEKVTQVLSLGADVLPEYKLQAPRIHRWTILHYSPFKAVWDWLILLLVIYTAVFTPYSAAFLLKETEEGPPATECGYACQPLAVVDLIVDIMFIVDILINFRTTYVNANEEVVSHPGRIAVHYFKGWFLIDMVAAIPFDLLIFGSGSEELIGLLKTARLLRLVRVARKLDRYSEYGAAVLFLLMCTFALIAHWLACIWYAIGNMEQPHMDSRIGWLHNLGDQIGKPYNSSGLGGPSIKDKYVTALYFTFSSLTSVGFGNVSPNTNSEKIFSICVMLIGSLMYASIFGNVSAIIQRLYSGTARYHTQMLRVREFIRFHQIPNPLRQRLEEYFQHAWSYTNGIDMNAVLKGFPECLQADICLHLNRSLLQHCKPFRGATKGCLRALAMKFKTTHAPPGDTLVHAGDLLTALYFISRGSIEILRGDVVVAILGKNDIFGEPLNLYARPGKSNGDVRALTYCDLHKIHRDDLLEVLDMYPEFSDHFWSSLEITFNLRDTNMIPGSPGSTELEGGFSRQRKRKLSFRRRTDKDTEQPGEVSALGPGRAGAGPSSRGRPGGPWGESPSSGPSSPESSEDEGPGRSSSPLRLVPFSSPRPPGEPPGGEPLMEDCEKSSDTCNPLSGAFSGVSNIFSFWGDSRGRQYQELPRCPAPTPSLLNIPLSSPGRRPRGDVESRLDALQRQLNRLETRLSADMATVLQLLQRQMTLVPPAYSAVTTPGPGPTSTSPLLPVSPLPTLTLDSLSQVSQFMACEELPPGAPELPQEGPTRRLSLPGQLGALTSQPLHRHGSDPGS

Compound	hERG current change (%, negative = inhibition) at 10uM
O=C(Nc1ccc(C(=O)N2CCN(c3ccccn3)CC2)cc1)c1ccc(Br)o1	-66.7%
CCc1ccc(NC(=O)CSc2nc3ccccc3nc2N2CCCC2)cc1	20.3%
Cc1ccccc1C(=O)c1cccn1CC(=O)NCCC1=CCCCC1	20.5%
ClC(Cl)c1nnc(-c2ccccc2)c(-c2c[nH]c3ccccc23)n1	7.76%
COc1ccc(/C=C(\C#N)c2cc(OC)c(OC)cc2[N+](=O)[O-])cc1	17.1%
O=C1CC(NNC(=O)c2ccc(Br)cc2)C(=O)N1 (centres unmarked)	12.6%
CCOC(=O)N1CCC(NC(=O)C2CCCN(Cc3nc(-c4cccc(Cl)c4)oc3C)C2)CC1 (centres unmarked)	-72.2%
Cc1ccccc1NC(=O)CCN1CCN(C)CC1	19.4%
Cc1cc(OCC(=O)N2CCc3ccccc3C2)c2c(-c3ccccc3)cc(=O)oc2c1	-20.7%
N/C(=N\NC(=O)c1ccccc1Cl)c1cc2ccccc2oc1=O	26.2%
OC1(c2ccc(Cl)cc2)CCN(Cc2cn[nH]c2-c2ccccc2)CC1	-77.7%
O=C(O)c1cccc(S(=O)(=O)Nc2ccc3c(c2)OCO3)c1	23.4%
COc1cc(NC(=S)NCc2cccnc2)c(OC)cc1Cl	-27.9%
O=C(OCc1cnc(Cl)s1)c1cccc(Cl)c1	-7.77%
CC(C)(OC(=O)c1cccs1)c1cc2ccccc2c(=O)o1	1.83%
CCN1CCOC(CC(=O)Nc2ccc([N+](=O)[O-])cc2)C1=O (centres unmarked)	-5.8%
O=C(O)c1cc(S(=O)(=O)Nc2ccccc2C(=O)O)ccc1O	4.16%
Cc1ccc(C(=O)OCC(=O)c2c[nH]c3ccccc23)cc1NC(=O)c1ccco1	-2.89%
O=C(Cn1cncn1)NCc1cc(F)ccc1F	13.7%

Compound	hERG current change (%, negative = inhibition) at 10uM
CC(C)(C)NC(=O)C(c1ccc(F)cc1)N(Cc1ccco1)C(=O)c1csnn1 (centres unmarked)	2.96%
Cc1cc2cc(C)c3nnc(SCC(=O)N4CCN(C(=O)c5ccco5)CC4)n3c2cc1C	-13.2%
CC(=O)c1cccc(NC(=O)C2C(c3ccccc3)C2(Cl)Cl)c1 (centres unmarked)	5.69%
COc1ccc(C(=O)CCC(=O)Nc2cccnc2)cc1	9.39%
O=C(c1ccccc1)C(O)C(c1ccccc1)N1CCOCC1 (centres unmarked)	21.7%
CC(C(=O)C12CC3CC(CC(C3)C1)C2)N1CCOCC1.Cl (centres unmarked)	23.4%
CN(C)S(=O)(=O)Oc1ccsc1C(=O)Nc1cccc(Cl)c1	-7.19%
COc1ccc(C(=O)C2CCCN(S(=O)(=O)c3cccc(C)c3)C2)c(C)c1 (centres unmarked)	11%
O=C(CNC(=O)COc1ccccc1)NCc1ccccc1F	-5.26%
Cc1ccc(NC(=O)NCc2ccc3[nH]c(C)cc3c2)cc1	16%
CC(C)N(CCC#N)C(=O)Nc1ccc2c(c1)CCO2	7.47%
COc1ccc([N+](=O)[O-])cc1NC(=O)C(C)OC(=O)C1c2ccccc2Oc2ccccc21 (centres unmarked)	23.5%
CC(C)CCN1CCN(C2CSCCSC2)CC1CCO (centres unmarked)	-7.6%
Cc1ccccc1NC(=O)CSc1nc(N)c2c3c(sc2n1)CSC(C)(C)C3	-16.1%
Cc1ccc(S(=O)(=O)NC(CC(C)C)C(=O)N2CCOCCOCCOCCOCC2)cc1 (centres unmarked)	-1.12%
COc1ccc(COc2ccc3c(C)cc(=O)oc3c2)cc1	1.32%
O=C1N(Nc2ccccc2)C(c2ccc(Br)cc2)C12CCCC2 (centres unmarked)	26.1%
CCN(CC)c1ccc(SS(=O)(=O)[O-])cc1.[Na+]	5.98%
Cc1ccc(CNC(=O)C(Cc2ccccc2)NS(=O)(=O)c2cccs2)cc1 (centres unmarked)	-18.3%

Compound	hERG current change (%, negative = inhibition) at 10uM
CC1CCN(C(=O)Cn2cnc3c(cnn3C(C)(C)C)c2=O)CC1	5.92%
COc1ccc(C(=O)Nc2ccc(C)cc2C(=O)c2ccccc2)c(OC)c1	9.85%
Cc1ccc(-c2nn(CCC(=O)O)cc2/C=C\C(=O)c2ccc(Br)cc2)cc1	56.7%
O=C(CCN1C(=O)c2ccccc2C1=O)Nc1cccc(O)c1	9.89%
Cn1nc(N2CCN(S(=O)(=O)c3ccccc3)CC2)c(=O)n(C)c1=O	12.9%
COC(=O)c1nc(-n2nc(C)cc2C)ccc1Cl	-9.85%
C=CCNC(=O)c1ccc2c(=O)n(Cc3ccccc3OC)c(=S)[nH]c2c1	8.92%
Cc1ccc(CNC(=O)CC2C(=O)Nc3c2c(=O)n(C)c(=O)n3Cc2ccccc2)cc1 (centres unmarked)	-2.14%
CCOC(=O)C1=C(C)N=c2s/c(=C\c3ccc(OCC(=O)O)cc3)c(=O)n2C1c1ccccc1OC (centres unmarked)	12.8%
CCOc1ccccc1NC(=O)CSc1nc(=O)n(CCN2CCOCC2)c2c1CCCC2	-15.6%
O=C(CSc1nnc2n1CCCN2)c1ccccc1	4.15%
CCN1CCN(c2nc3sc4c(c3c(=O)n2-c2ccc(OC)cc2)CCCCC4)CC1	-60.3%
Cc1ccc(C(=O)NCC(=O)N2CCc3ccccc3C2)cc1C	-3.34%
CN1C(=O)NC(c2ccc(O)cc2)C2=C1CN(c1cccc3ccccc13)C2=O (centres unmarked)	-11.8%
O=C(CN(Cc1cccs1)C(=O)CNS(=O)(=O)c1ccc(Cl)cc1)NCc1ccco1	-34.9%
CCOC(=O)N1CCN(Cc2nc3ccc([N+](=O)[O-])cc3c(=O)n2-c2cccc(OC)c2)CC1	-39.8%
COc1ccc(NS(=O)(=O)c2ccc(F)c(Cl)c2)cn1	9.8%
CCc1c(C2(O)CCCCC2)[nH]c2ccc(C(F)(F)F)cc12	31%
